# Laboratory results as given in PubChem BioAssay AID927 (National Center for Advancing Translational Sciences (NCATS), 2007).
# The whole screen tested about 60,000 compounds, of which about 65 (0.1%) were called active. Inconclusive means that the source gave no clear call. Such entries were picked first, then a sample of the others. The call rests on the fitted dose curve; in most records, active means well fitted inhibition curve with a large enough effect; inconclusive means small, poorly fitted or top-dose-only effect; inactive means no such curve, though single readings can be large or run the other way. A potency beside an inconclusive call is a rough fit, not a confirmed value.
# Target: Ubiquitin carboxyl-terminal hydrolase 2 (Homo sapiens) (UniProt O75604)
# UniProt O75604, sequence (O75604 whole entry, looked up): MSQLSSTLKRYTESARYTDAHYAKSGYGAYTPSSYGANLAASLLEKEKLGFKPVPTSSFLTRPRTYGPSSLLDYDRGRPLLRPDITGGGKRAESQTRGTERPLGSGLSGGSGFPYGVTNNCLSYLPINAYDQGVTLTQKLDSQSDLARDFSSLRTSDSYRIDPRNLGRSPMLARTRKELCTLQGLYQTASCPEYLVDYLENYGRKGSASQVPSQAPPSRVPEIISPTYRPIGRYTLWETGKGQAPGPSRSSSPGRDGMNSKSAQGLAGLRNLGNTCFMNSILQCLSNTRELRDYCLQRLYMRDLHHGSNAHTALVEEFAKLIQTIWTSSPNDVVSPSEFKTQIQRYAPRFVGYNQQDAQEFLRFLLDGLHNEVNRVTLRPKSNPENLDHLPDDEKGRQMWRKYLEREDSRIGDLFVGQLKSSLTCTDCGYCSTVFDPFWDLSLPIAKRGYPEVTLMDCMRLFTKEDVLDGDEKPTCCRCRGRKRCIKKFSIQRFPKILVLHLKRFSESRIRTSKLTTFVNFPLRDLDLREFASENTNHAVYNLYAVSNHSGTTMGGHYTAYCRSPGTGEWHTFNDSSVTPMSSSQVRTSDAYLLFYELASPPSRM
# Assay: qHTS Assay for Inhibitors of Ubiquitin-specific Protease USP2a; further: nearly all actives have a fitted effect of over 60% in size;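 on activity change, negative = inhibition: plate controls were DMSO for no effect and NEM full inhibition control for full effect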
# Details: USP2a enzymatic assay; Potency: qHTS inhibition; activity change, negative = inhibition: at 38.3 µM (top of the series)
# Summary of the method: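 USP2 core (20 nM final) was preincubated with compound for 30 min at RT in 20 mM Tris-HCl pH 8.0, 2 mM CaCl2, 2 mM beta-mercaptoethanol; Ub-PLA2 (20 nM) plus NBD C6-HPC (20 uM) then added, fluorescence read after 2.5 h.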
# Potency means the concentration at half of the fitted maximal effect; tags describe the fitted curve by direction and shape.
SMILES,Potency,"activity change, negative = inhibition"
O=C(Nc1nc(-c2ccco2)c(-c2ccco2)s1)C1CC(=O)N(c2ccc3c(c2)OCCO3)C1 (configuration not stated),"inconclusive: 25.1 µM [inhibitor, single point]",–
Cn1c(=O)[nH]c(=O)c2c1nc(OC(=O)c1ccccc1)n2CC(O)COc1ccccc1 (configuration not stated),"inconclusive: 10 µM [inhibitor, partial curve]",–
NC(=O)CSc1nc2ccccc2n1-c1ccccc1,"inconclusive: 25.1 µM [inhibitor, single point]",–
CSc1ccc(S(=O)(=O)Nc2cccc(F)c2)cc1,inactive,–
COc1ccc(NC(=O)CN2CCN(c3ccc(Cl)cc3)CC2)c(OC)c1,active: 12.6 µM,–
c1cncc(-c2nc(N3CCCCCC3)c3ccccc3n2)c1,"inconclusive: 2.51 µM [inhibitor, full curve, poor fit]",–
CC1(C)CC(=O)C2=C(C1)OC(N)=C(C#N)C2c1ccc(OC(=O)N2CCOCC2)cc1 (configuration not stated),"inconclusive: 25.1 µM [inhibitor, partial curve]",–
CC(C)Cn1c(=O)c(C(=O)Nc2ccccc2S(N)(=O)=O)c(O)c2ccccc21,"inconclusive: 7.94 µM [inhibitor, single point]",–
C=C(C)COc1ccc(-c2nc(N)ncc2Oc2ccc(OC)cc2)c(O)c1,"inconclusive: 25.1 µM [inhibitor, single point]",–
CCN(CC)CCCNS(=O)(=O)c1ccc(OC)cc1,"inconclusive: 3.16 µM [inhibitor, single point]",–
COc1cc(C(=O)Oc2ccccc2N)cc(OC)c1OC,–,inactive: 1.79% [at 7.66 µM]
Cn1c(SCc2cccnc2)nc2cccnc21,active: 5.01 µM,–
C=C(C)COc1ccc(-c2[nH]ncc2Oc2ccccc2OC)c(O)c1,"inconclusive: 25.1 µM [inhibitor, single point]",–
CC(CN1CCN(C)CC1)OC(=O)c1ccccc1Cl (configuration not stated),"inconclusive: 10 µM [inhibitor, partial curve]",–
O=C(NC1CCCC1)c1ccc(COCC(F)(F)C(F)F)o1,inactive,–
COc1ccccc1CNc1ncnc2ccc(-c3ccc(N(C)C)cc3)cc12,"inconclusive: 25.1 µM [inhibitor, single point]",–
CCNCCNC(=O)c1c(O)c2cccc3c2n(c1=O)CCC3,"inconclusive: 10 µM [inhibitor, single point]",–
CCOC(=O)C1=C(c2ccccc2)NC(=O)NC1c1ccc(OCC#N)c(OC)c1 (configuration not stated),"inconclusive: 7.94 µM [inhibitor, partial curve]",–
CCn1c(=O)cc(SCC(=O)NCCCN2CCN(c3ccccc3F)CC2)c2ccccc21,inactive,–
CCc1ccc(CC)c(S(=O)(=O)Nc2ccc(C(=O)O)c(O)c2)c1,"inconclusive: 12.6 µM [inhibitor, single point]",–
FC(F)C(F)(F)C(F)(F)C(F)(F)c1cc(-c2ccccc2)n[nH]1,"inconclusive: 25.1 µM [inhibitor, single point]",–
c1ccc2c(NC3CCNCC3)nc(-c3ccoc3)nc2c1,inactive,–
Cc1cc(C)c2c(-n3cccc3)c(C(=O)O)sc2n1,"inconclusive: 20 µM [inhibitor, single point]",–
COc1ccc(C2C(C#N)=C(N)OC3=C2C(=O)CC(C)C3)c(OC)c1OC (configuration not stated),"inconclusive: 25.1 µM [inhibitor, single point]",–

SMILES,Potency,"activity change, negative = inhibition"
CCOc1ccc(-c2cc3nc(C4CCN(C(=O)OC(C)(C)C)CC4)c(C(=O)O)cn3n2)cc1,inactive,–
Cc1oc2c(c1C(=O)NC(Cc1c[nH]c3ccccc13)C(=O)O)CCCC2 (configuration not stated),"inconclusive: 10 µM [inhibitor, partial curve]",–
CCc1nc(N2CCCCC2C)c2oc3ccccc3c2n1 (configuration not stated),"inconclusive: 12.6 µM [inhibitor, single point]",–
O=C1OC(C(O)CO)C(O)=C1O (configuration not stated),inactive,–
C[C@H](Cc1ccc(O)c(O)c1)[C@@H](C)Cc1ccc(O)c(O)c1,"inconclusive: 31.6 µM [inhibitor, single point]",–
Cc1ccc(S(=O)(=O)N2CCCC2C(=O)NC2=NCCS2)cc1 (configuration not stated),"inconclusive: 5.01 µM [inhibitor, single point]",–
O=C(c1cc(-c2ccc3c(c2)OCO3)on1)N1CCN(c2ccccc2)CC1,inactive,–
O=c1c(O)cc(C2Oc3cc(O)cc(O)c3CC2O)cc2c(C3Oc4cc(O)cc(O)c4CC3O)cc(O)c(O)c12 (configuration not stated),"inconclusive: 25.1 µM [inhibitor, single point]",–
Cc1ccccc1-n1c(C)nc2ccccc21,inactive,–
N#C/C(=C\c1ccc[nH]1)Sc1nc2ccccc2s1,"inconclusive: 25.1 µM [inhibitor, single point]",–
CC(C)(C)NC(=O)[C@H]1CC[C@H]2[C@@H]3CC[C@H]4NC(=O)C=C[C@]4(C)[C@H]3CC[C@]12C,inactive,–
c1ccc(Nc2nc(-c3ccc4c(c3)OCO4)nc3ccccc23)cc1,inactive,–
CN1CCc2nc(SCCOc3ccccc3)c(C#N)cc2C1,inactive,–
CC(C)Cn1cc(C(=O)N2CCOCC2)c2c3ccccc3n(C)c2c1=O,inactive,–
O=C(CCCOc1ccc(Cl)cc1)N1CCOCC1,"inconclusive: 5.01 µM [inhibitor, single point]",–
CC(C)(C)c1ccc(C(=O)Nc2nonc2-c2nc3ccccc3[nH]2)cc1,inactive,–
COc1ccc(-n2c(=O)cnc3cnc(N4CCOCC4)nc32)cc1,"inconclusive: 10 µM [inhibitor, single point]",–
COc1ccc(CNc2ncnc3ccc(-c4ccoc4)cc23)c(OC)c1,"inconclusive: 3.16 µM [inhibitor, single point]",–
CCNc1ncc2nc(C)c(=O)n(C)c2n1,"inconclusive: 12.6 µM [inhibitor, single point]",–
OCC1OC([S-])[C@H](O)C(O)C1O.[Au+] (some centres not stated),"inconclusive: 12.6 µM [inhibitor, single point]",–
COc1ccc(CNC(=O)C(OC(C)=O)c2ccccn2)cc1 (configuration not stated),inactive,–
Cc1ccccc1-c1nc(N2CCOCC2)c2ccccc2n1,active: 12.6 µM,–
Cc1ccc(O)c(C(=O)c2cnn(C(=O)Cc3csc(C)n3)c2)c1,"inconclusive: 10 µM [inhibitor, partial curve]",–
